Measurements taken from paper PMC6919601, “Identification of Plasmodium dipeptidyl aminopeptidase allosteric inhibitors by high throughput screening” (PLoS ONE, 2019).
Hit rate of the full screen: of about 110,000 compounds, about 230 (0.21%) showed an effect of 50% or more. This is one part of the list.

Biological target: DPAP1 (Plasmodium falciparum, UniProt Q8IIJ9)
Experiment: primary screen, percent inhibition; read by cleavage of a fluorogenic dipeptide substrate; higher = more effect of the substance
Set-up: species or system P. falciparum D10 trophozoite lysates; single well
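Also: 30 min substrate incubation versus DMSO and 10 µM JCP410 controls.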

DPAP1, sequence (Q8IIJ9 whole entry, looked up): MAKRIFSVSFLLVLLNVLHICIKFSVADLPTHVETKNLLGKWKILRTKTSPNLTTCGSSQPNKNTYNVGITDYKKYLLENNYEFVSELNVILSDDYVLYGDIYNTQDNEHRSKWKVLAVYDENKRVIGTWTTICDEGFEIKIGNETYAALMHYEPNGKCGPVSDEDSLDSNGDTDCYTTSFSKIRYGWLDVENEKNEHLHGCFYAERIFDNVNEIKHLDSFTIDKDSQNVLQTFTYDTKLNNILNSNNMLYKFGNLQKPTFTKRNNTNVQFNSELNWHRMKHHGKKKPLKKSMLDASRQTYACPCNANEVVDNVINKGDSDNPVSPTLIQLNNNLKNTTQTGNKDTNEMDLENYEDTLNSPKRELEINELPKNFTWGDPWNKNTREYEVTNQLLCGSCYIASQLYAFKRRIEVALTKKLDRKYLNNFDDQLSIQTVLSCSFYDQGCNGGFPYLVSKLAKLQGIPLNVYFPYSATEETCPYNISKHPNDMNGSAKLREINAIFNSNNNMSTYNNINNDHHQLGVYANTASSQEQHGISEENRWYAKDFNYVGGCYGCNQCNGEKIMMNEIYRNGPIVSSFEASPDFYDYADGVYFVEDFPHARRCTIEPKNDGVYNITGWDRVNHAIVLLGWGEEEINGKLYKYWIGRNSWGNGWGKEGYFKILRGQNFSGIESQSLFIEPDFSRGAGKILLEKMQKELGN

Row | Compound | % Inhibition @ 10 uM
1 | Cc1cc(-c2c(C)[n+]([O-])c(C)c(C)[n+]2[O-])ccc1F | -0.0626%
2 | COc1cc(OC)nc(NC(=O)Nc2cccc(Cl)c2)n1 | -0.999%
3 | CC(C)C(C(=O)NCc1ccccc1)N1Cc2ccccc2C1=O (centres unmarked) | 0.0322%
4 | CCOc1ccc(-n2cc(-c3ccccc3)c3c(NC(C)COC)ncnc32)cc1 (centres unmarked) | -1.62%
5 | O=C(O)COc1ccc(S(=O)(=O)NCc2ccccc2)cc1 | 4.31%
6 | COc1cc2c(cc1OC)CN(C(=O)CSc1nnc3ccc4ccccc4n13)CC2 | -2.75%
7 | O=C(c1cccc(C(=O)N2CCN(c3ncccn3)CC2)c1)N1CCN(c2ncccn2)CC1 | -2.9%
8 | CC1=C(C(=O)OCC(C)C)C(c2c(F)cccc2Cl)CC(=O)N1 (centres unmarked) | -3.51%
9 | CC(=O)c1ccccc1C(=O)NCc1cccnc1 | -1.6%
10 | O=c1c(Cc2ccccc2)c(O)nc2n1CCS2 | 1.42%
11 | COCCN1C(=O)/C(=C\c2ccc(SC)cc2)C(C(=O)OC)=C1C | 0.131%
12 | O=c1oc2ccc([N+](=O)[O-])cc2cc1-c1ccccc1 | -2.51%
13 | Cc1cc(C)n(C(=O)c2cc(F)c(F)cc2C)n1 | -4.24%
14 | CCCCC(=O)Nc1nc2cc(C)c(C)cc2s1 | -2.07%
15 | CCOC(=O)N1CCN(C(=O)CN2C(=O)c3ccccc3S2(=O)=O)CC1 | 8.68%
16 | Cc1ccc(C(=O)Nc2ccccc2C)o1 | 1.57%
17 | CC(C)C(=O)N[C@@H](CC1CCCCC1)C(=O)NCC#N | -0.214%
18 | O=C(Nc1ccc(Cl)c(Cl)c1)C1CCN(C(=O)c2ccccc2)CC1 | -1.17%
19 | Cn1ncc(Cl)c1C(=O)Nc1ccn(Cc2ccccc2)n1 | 5.54%
20 | Cc1ccc2nc3c(cc(C(=O)NCc4cccnc4)c(=N)n3CCc3ccccc3)c(=O)n2c1 | -5.14%
21 | COc1ccc(Sc2ccc(C=C3C(=O)N(C)C(=O)N(C)C3=O)o2)cc1 | -1.7%
22 | CC1(C)CC2=Nc3ncnn3C(c3ccc(Cl)cc3)C2=C(O)C1 (centres unmarked) | -3.16%

Row | Compound | % Inhibition @ 10 uM
23 | O=S(=O)(c1ccc(F)cc1)N1CCCc2ccccc21 | -2.12%
24 | O=S(=O)(NCCc1ccccc1)c1ccc(Cl)cc1 | -4.08%
25 | COc1ccc(-c2noc(CCCC(=O)NC(C)(C)C)n2)cc1 | 0.347%
26 | CC1CC(C)CN(c2c(-c3ccc(C(C)C)cc3)c(=O)c2=O)C1 (centres unmarked) | 3.84%
27 | OCC1CCCCN1Cc1ccoc1 (centres unmarked) | -0.636%
28 | CC(C)CCn1cnc2c(oc3ccccc32)c1=O | -3.57%
29 | CS(=O)(=O)N(CC(=O)NCCc1ccccc1)c1ccc(Cl)c(Cl)c1 | -0.992%
30 | Cc1ccc(CNC(=O)C2CC(=O)N(c3ccc(OCC(=O)N4CCCC4)cc3)C2)cc1 (centres unmarked) | -2.75%
31 | Cc1cc(N2CCC(C(=O)NCc3ccccc3)CC2)n2nc(C)c(-c3ccc(Cl)cc3)c2n1 | -1.89%
32 | COc1ccc(CN2CCN(Cc3ccc(OC)c(OC)c3OC)CC2)cc1 | -7.9%
33 | COc1ccc(/C=C2\Cc3ccccc3C2=O)cc1Cn1cccn1 | -2.12%
34 | COc1ccc(C(=O)NC2CCC(NC(=O)c3ccc(OC)cc3)CC2)cc1 (centres unmarked) | 2.46%
35 | Nc1c2c(nc3ccccc13)CCN(Cc1ccccc1)C2 | -0.0678%
36 | Cc1cccc(C(=N)NOC(=O)COc2ccccc2C)c1 | -11.2%
37 | COC(=O)C1=CN(C(C)C)C=C(C(=O)OC)C1c1cc2c(cc1Br)OCO2 | 1.86%
38 | CCOC(=O)N1CCN(C(=O)Cn2ncc3ccsc3c2=O)CC1 | -6.52%
39 | O=C(O)/C=C\C(=O)N1CCN(c2nc(-c3ccccc3)c3cc(Br)ccc3n2)CC1 | -2.87%
40 | CCN(CC)C(=O)c1c(NC(=O)c2ccco2)sc2c1CCC(C)C2 (centres unmarked) | -3.9%
41 | CCC1CCC(NCCN(C)C)CC1 (centres unmarked) | -3.42%
42 | CCc1c(C)c2cc3c(c(C)c2oc1=O)OCN(Cc1ccc2c(c1)OCO2)C3 | 0.895%
43 | NC(=O)c1ccc(NC(=O)C2CC=CCC2C(=O)O)cc1 (centres unmarked) | -3.92%
44 | O=C(N1CCOCC1)C1(c2ccccc2)CCCC1 | -3.09%

Row | Compound | % Inhibition @ 10 uM
45 | C=CCOc1ccc(C(=O)C2=C(O)C(=O)N(CCCN3CCOCC3)C2c2ccccc2F)cc1C (centres unmarked) | -1.93%
46 | NC(=O)c1ccc(NC(=O)CN(Cc2ccc(Cl)c(Cl)c2)S(=O)(=O)c2ccccc2)cc1 | 7.97%
47 | Cc1cc(C)c2c(n1)sc1[nH]nnc12 | -1.85%
48 | CCC1=NC(c2ccc(OC)c(OC)c2)N(O)C1(C)C (centres unmarked) | 2.03%
49 | Cc1[nH]c2ccccc2c1CC/N=C1/C=C(O)CC(C)(C)C1 | -5.79%
50 | Cc1cc(C)n2nc(SCC(=O)NC3CCCc4ccccc43)nc2n1 (centres unmarked) | -2.26%
51 | Cc1cn(CCOc2ccccc2)c(=O)n(Cc2ccccc2)c1=O | 0.883%
52 | CCN(CC)CCCNc1ncnc2onc(-c3ccc(Cl)cc3)c12 | 2.74%
53 | C=CCn1c(SCCC)nc2c1c(=O)n(C)c(=O)n2C | 4.11%
54 | COc1ccccc1-c1cc(C(=O)N2CCCCCC2)no1 | -3.36%
55 | CCOc1ccc(C(=O)NC(CC(C)C)C(=O)NCC#N)cc1 (centres unmarked) | -12%
56 | Cc1cccc(N2CCN(CC(O)COc3ccc(Cl)cc3)CC2)c1 (centres unmarked) | -1.22%
57 | O=C1CC(c2ccccc2)=Nc2cc3ccccc3cc2N1 | -0.0217%
58 | NC(N)=NCCCC(N)C(=O)NC(Cc1ccccc1)C(=O)O (centres unmarked) | 3.51%
59 | COc1cc(CN2CCN(c3ccc(C(C)=O)cc3)CC2)cc(OC)c1 | -3.15%
60 | CCCN1C(=O)/C(=C/c2ccco2)S/C1=N/c1ccc(OC)cc1 | -10.7%
61 | Cc1ccc(CCNC(=O)C2CCN(C(=O)c3cc4sccc4n3C)CC2)cc1 | -5.19%
62 | Cc1ccc2onc(CNC(=O)Nc3ccc(Cl)cn3)c2c1 | -5.54%
63 | COc1ccc(C(=O)Nc2c(Cl)cc(Cl)cc2C(=O)NCc2cccnc2)cc1 | 1.15%
64 | N#CC1=C(N)Oc2cc(N)ccc2C1c1ccc(O)cc1 (centres unmarked) | -3.13%
65 | Cc1ccc(CCN2CC(C(=O)NCCCN3CCC(C)CC3)CC2=O)cc1 (centres unmarked) | 1.62%
